Data reported in publication PMC6642205.
These are yes or no findings as the source states them, for the method shown. For part of these data: In cells and extracts the contact can be indirect. Some binding calls cover weakened binding; strength is not graded here. For part of these data: Sequences can lack the tags named with a protein.

Sequences of proteins named here, by UniProt entry; tags and fusion partners are left off. A change or cut given only in a name is not applied to a line headed by its entry.
UniProt Q7Z434: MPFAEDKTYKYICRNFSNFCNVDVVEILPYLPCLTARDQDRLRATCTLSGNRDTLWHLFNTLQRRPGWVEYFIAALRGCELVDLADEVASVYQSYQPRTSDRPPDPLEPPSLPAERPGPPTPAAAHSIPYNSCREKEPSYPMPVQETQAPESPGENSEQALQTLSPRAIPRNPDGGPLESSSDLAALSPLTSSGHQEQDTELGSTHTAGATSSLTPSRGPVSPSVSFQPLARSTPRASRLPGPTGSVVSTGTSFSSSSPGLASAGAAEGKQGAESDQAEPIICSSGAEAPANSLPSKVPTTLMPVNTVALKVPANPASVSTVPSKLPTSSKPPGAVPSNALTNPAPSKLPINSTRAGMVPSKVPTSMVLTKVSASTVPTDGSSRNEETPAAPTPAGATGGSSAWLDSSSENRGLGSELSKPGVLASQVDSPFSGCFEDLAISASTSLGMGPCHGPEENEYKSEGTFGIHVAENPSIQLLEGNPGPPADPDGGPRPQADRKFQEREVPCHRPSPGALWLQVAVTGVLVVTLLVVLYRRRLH

Tests used:
[1] = target: T1, NLK (Nemo-like kinase), transfected, tag not stated (UniProt Q9UBE8); test: co-IP; competition: 20 µg/ml NAMDAP peptide added to HEK293T cells transfected with NLK and MAVS (MG132, SeV, 8 h) before immunoprecipitation; only the binder purified
T1 sequence: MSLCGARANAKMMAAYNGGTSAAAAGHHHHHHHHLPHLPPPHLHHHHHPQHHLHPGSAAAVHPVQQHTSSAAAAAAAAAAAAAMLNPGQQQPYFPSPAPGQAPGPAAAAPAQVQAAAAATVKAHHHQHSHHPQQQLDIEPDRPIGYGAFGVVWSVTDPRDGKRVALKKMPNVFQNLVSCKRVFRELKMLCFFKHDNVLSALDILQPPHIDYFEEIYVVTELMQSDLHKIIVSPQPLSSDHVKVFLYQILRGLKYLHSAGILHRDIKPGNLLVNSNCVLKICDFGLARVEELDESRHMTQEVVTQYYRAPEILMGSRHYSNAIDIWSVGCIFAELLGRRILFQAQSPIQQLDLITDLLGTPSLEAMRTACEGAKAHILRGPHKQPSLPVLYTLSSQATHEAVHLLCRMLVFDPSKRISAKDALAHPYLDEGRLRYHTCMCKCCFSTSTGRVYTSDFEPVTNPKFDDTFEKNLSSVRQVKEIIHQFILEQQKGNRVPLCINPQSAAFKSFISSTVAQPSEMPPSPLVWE

[2] = target: T2, TBK1 (UniProt Q9UHD2); test: co-IP; […] antibody and Protein G beads, 4 °C, 5 h; immunoblot
T2 sequence: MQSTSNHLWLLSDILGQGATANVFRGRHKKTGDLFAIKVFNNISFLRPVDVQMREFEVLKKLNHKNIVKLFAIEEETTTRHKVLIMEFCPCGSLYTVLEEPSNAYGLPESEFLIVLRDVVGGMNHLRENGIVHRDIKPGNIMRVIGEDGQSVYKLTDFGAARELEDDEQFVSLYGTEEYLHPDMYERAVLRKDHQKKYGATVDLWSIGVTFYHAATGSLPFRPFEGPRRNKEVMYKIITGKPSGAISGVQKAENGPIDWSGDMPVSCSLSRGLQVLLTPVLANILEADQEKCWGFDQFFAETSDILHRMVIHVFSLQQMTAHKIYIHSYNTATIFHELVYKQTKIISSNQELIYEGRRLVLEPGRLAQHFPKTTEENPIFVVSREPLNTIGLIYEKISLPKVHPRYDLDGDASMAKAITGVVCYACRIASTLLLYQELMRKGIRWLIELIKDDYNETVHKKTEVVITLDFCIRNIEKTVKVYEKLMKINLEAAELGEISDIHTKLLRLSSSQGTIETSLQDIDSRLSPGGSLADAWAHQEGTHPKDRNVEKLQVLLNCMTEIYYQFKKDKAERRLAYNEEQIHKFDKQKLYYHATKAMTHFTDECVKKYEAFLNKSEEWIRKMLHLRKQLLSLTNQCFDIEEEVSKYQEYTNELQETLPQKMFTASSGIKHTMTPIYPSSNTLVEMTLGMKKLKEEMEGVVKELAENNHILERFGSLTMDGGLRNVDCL

[3] = target: HA-MAVS (mitochondrial antiviral-signaling protein) (UniProt Q7Z434); test: co-IP
[4] = target: endogenous MAVS (mitochondrial antiviral-signaling protein) (human (endogenous in HEK293T)) (UniProt Q7Z434); test: co-IP; endogenous proteins of HEK293T cells, with or without SeV stimulation (16 h); NP40 lysis buffer; immunoblot
[5] = target: MAVS (mitochondrial antiviral-signaling protein), transfected, tag not stated (UniProt Q7Z434); test: co-IP
[6] = target: T3, endogenous IRF3 of mouse BMDMs (mouse (endogenous in BMDMs)), P70671; test: native gel or EMSA; conditions: remark: other sources report otherwise
T3 chain: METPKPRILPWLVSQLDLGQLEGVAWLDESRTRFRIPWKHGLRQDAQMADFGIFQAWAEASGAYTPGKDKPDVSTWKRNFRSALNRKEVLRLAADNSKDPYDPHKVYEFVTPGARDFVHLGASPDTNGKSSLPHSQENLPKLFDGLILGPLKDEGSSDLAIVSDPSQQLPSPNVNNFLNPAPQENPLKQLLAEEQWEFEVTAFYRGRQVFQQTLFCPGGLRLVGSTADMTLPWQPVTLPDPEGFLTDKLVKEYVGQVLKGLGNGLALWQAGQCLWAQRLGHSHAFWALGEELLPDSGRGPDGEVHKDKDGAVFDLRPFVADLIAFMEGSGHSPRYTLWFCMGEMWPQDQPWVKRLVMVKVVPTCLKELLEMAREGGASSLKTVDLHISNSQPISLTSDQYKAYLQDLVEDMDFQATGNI

NLK-associated and MAVS-derived antiviral peptide (NAMDAP) (from UniProt Q7Z434 471-480)
binding [1]: binds

B1: Flag-NLK (Nemo-like kinase) (enzyme, UniProt Q9UBE8 1-527)
chain: T1 sequence
binding [2]: no binding | binding [3]: binds

B2: endogenous NLK (Nemo-like kinase) (enzyme, UniProt Q9UBE8 1-527)
chain: T1 sequence
binding [4]: binds

B3: NLK (Nemo-like kinase), transfected, tag not stated (enzyme, UniProt Q9UBE8 1-527)
chain: T1 sequence
binding [5]: binds

B4: endogenous IRF3 of mouse BMDMs, P70671 1-419 (protein)
chain: T3 chain
binding [6]: binds
